According to PubChem BioAssay AID2451 (National Center for Advancing Translational Sciences (NCATS), 2010):
Out of some 290,000 compounds screened, about 2,100 (0.72%) were called active. Inconclusive results, whose numbers are uncertain, are shown with a selection of clear calls. The call rests on the fitted dose curve; in most records, active means well fitted inhibition curve with a large enough effect; inconclusive means small, poorly fitted or top-dose-only effect, or effect the other way; inactive means flat fitted curve, though single readings scatter. Where the call is inconclusive, the potency comes from a doubtful curve fit.
Further: nearly all actives have a fitted effect of over 55% in size.
Potency means the concentration at half of the fitted maximal effect; tags describe the fitted curve by direction and shape.

What follows are molecules tested against Fructose-bisphosphate aldolase (Giardia intestinalis (strain ATCC 50803 / WB clone C6)) (UniProt A8B2U2) (assay: qHTS Assay for Inhibitors of Fructose-1,6-bisphosphate Aldolase from Giardia Lamblia). Conditions: purified Giardia FBPA; series mostly up to 59.6 µM.
Chain of UniProt A8B2U2 (A8B2U2 whole entry, looked up): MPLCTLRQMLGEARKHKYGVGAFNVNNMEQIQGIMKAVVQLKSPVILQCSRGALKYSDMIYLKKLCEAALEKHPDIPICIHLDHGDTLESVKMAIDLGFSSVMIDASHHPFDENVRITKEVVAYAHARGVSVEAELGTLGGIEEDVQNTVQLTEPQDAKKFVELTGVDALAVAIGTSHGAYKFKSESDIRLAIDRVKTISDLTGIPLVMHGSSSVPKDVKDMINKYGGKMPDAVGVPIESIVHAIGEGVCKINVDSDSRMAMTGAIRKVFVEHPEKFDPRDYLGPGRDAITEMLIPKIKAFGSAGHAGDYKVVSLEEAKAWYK
In short: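 40 nM FBPA preincubated 10 min at RT with compound (up to 57.5 uM final), then substrate plus GAPDH/TPI/NAD/arsenate coupling and diaphorase/resazurin added. Fluorescence read after 20 min at RT, 525/598 nm.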
For `CN(C)C1C(=O)C(C(N)=O)=C(O)[C@@]2(O)C(=O)C3=C(O)c4c(O)ccc(Cl)c4[C@@H](O)C3C[C@@H]12` (some centres undefined), the Potency was inconclusive: 35.4 µM [inhibitor, single point].
`COc1ccc(N2CCN(CC(=O)N3c4ccccc4CC3C)CC2)cc1` (centres undefined) was tested, and the Potency was inconclusive: 20 µM [inhibitor, partial curve].
`C=CCNC(=S)N1CCN(CCNC2=CC(=O)CC(C)(C)C2)CC1` was tested, and the Potency was inconclusive: 7.06 µM [inhibitor, partial curve].
With `Cc1cc(O)c(C(C)C)cc1N=Cc1cc([N+](=O)[O-])ccc1O` the Potency was inconclusive: 2.51 µM [inhibitor, full curve].
`CCn1c(CC(=O)Nc2ccccc2F)nnc1SCC(=O)Nc1nnc(C)s1` was tested, and the Potency was inconclusive: 20 µM [inhibitor, partial curve].
For `Cc1cc2n(n1)SC(Nc1ccc(F)c(Cl)c1)N2` (centres undefined), the Potency was inconclusive: 19.9 µM [inhibitor, partial curve].
With `COc1ccc(CN2C(=O)c3cccnc3C2O)cc1` (centres undefined) the Potency was inconclusive: 5 µM [activator, partial curve].
In the case of `O=C1c2ccccc2C(=O)N1CC#CCN1CCN(C(c2ccccc2)c2ccccc2)CC1`, the Potency was inconclusive: 35.4 µM [inhibitor, single point].
For `CCOC(=O)N1CCN(c2ncnc3c2cnn3-c2ccc(OC)cc2)CC1`, the Potency was “inactive”.
For `CC(C)N(C(=O)CSc1nc2c([nH]1)c(=O)n(C)c(=O)n2C)c1ccccc1`, the Potency was inconclusive: 7.06 µM [inhibitor, partial curve].
`[O-][n+]1cccc2c(Br)cc(Br)c(O)c21` was tested, and the Potency was inconclusive: 5 µM [inhibitor, partial curve].
For `CC1=[N+](C)c2c(ccc3cccnc23)C1(C)C`, the Potency was active: 1.99 µM.
With `COc1ccccc1N1C(=O)NC(=O)/C(=C/c2ccc3c4c(cccc24)CC3)C1=O` the Potency was inconclusive: 14.1 µM [inhibitor, partial curve].
`O=C(CC(C(=O)O)c1ccc(F)cc1)c1ccc(Cl)cc1` (centres undefined) was tested, and the Potency was “inactive”.
`O=C(NNC(=S)NC(=O)c1ccccc1)c1cccnc1` was tested, and the Potency was inconclusive: 2.82 µM [inhibitor, full curve].
`CC1CCCCN1CC(=O)Nc1ccc(N2CCCCCC2)cc1` (centres undefined) was tested, and the Potency was inconclusive: 12.6 µM [inhibitor, partial curve].
`CCOc1ccc2[nH]c(=S)[nH]c2c1` was tested, and the Potency was inconclusive: 22.3 µM [inhibitor, single point].
For `CCN(CC)S(=O)(=O)c1ccc(C(=O)Nc2nnc(CSC)o2)cc1`, the Potency was active: 15.8 µM.
In the case of `CCOC(=S)SCc1cn2cccc(C)c2n1`, the Potency was inconclusive: 17.7 µM [inhibitor, single point].
For `CC(C)Nc1nc(NC(C)C)nc(SCCOC(=O)Nc2ccc(Cl)cc2Cl)n1`, the Potency was “inactive”.
With `Cc1ccc(CNCCCSc2ncccn2)cc1` the Potency was inconclusive: 22.4 µM [inhibitor, single point].
In the case of `N#Cc1nc(Cc2cccc3ccccc23)oc1NCC1CCCO1` (centres undefined), the Potency was “inactive”.
For `COc1cccc(N2CCN(CC(=O)C34CC5CC(CC(C5)C3)C4)CC2)c1`, the Potency was inconclusive: 17.7 µM [inhibitor, partial curve].
With `Oc1c(C(Nc2cccc(C(F)(F)F)c2)c2cccnc2)ccc2cccnc12` (centres undefined) the Potency was inconclusive: 44.6 µM [inhibitor, single point].
For `O=C1C2CCCCN2C(=O)N1CCCCN1CCN(c2ccc(F)cc2)CC1` (centres undefined), the Potency was inconclusive: 22.4 µM [inhibitor, single point].
For `CC(=O)NCC1COc2ccccc2O1` (centres undefined), the Potency was “inactive”.
`O=C(N/N=C\c1ccccn1)C1COc2cc3ccccc3cc2O1` (centres undefined) was tested, and the Potency was inconclusive: 19.9 µM [inhibitor, single point].
With `COc1ccc2nc(Nc3nc(C)c(C(C)=O)s3)sc2c1` the Potency was inconclusive: 22.3 µM [activator, single point].
For `c1cncc(C(c2nnnn2C2CCCCC2)N2CCN3CCCC3C2)c1` (centres undefined), the Potency was “inactive”.
In the case of `O=C(CN1C(=O)/C(=C/c2ccco2)SC1=S)NC1CCS(=O)(=O)C1` (centres undefined), the Potency was inconclusive: 35.5 µM [inhibitor, single point].
In the case of `CC(=O)N1N=C(c2ccccc2O)OC1(C)CC(=O)Nc1ccccc1` (centres undefined), the Potency was inconclusive: 25.1 µM [inhibitor, single point].
`CC(=O)N1c2ccccc2CCc2ccc(N)cc21` was tested, and the Potency was inconclusive: 17.8 µM [inhibitor, partial curve].
For `CCCCC(=O)Nc1cc(Cl)ccc1C(=O)O`, the Potency was inconclusive: 15.8 µM [inhibitor, single point].
For `Cc1ccc(-n2c(O)c(/C=N/NC(=O)C3COc4ccccc4O3)c3ccccc3c2=O)cc1` (centres undefined), the Potency was inconclusive: 22.3 µM [activator, single point].
For `N#CC1=C(N)C(C#N)(C#N)C(c2ccc[nH]2)C2CCCC=C12` (centres undefined), the Potency was inconclusive: 11.2 µM [inhibitor, partial curve].
For `N#CC1=C(SCC(=O)Nc2cccc3cccnc23)NC(=O)C(C#N)C12CCCCC2` (centres undefined), the Potency was inconclusive: 14.1 µM [inhibitor, partial curve].
With `Cc1cccc(NC(=O)C2CC(=O)n3cnnc3S2)c1` (centres undefined) the Potency was inconclusive: 14.1 µM [inhibitor, partial curve].
`CCc1ccc(NC(=O)c2c(Cl)nc(C)c(Cl)c2C)cc1` was tested, and the Potency was inconclusive: 19.9 µM [inhibitor, partial curve].
In the case of `CCCCc1c(O)nc(SC2CC(=O)N(c3ccc(C(=O)OCC)cc3)C2=O)[nH]c1=O` (centres undefined), the Potency was active: 7.08 µM.
For `Cc1ccc(OCCN(C)C(=O)c2cc(COc3ccc(F)cc3F)on2)cc1`, the Potency was “inactive”.
In the case of `CN1/C(=C/C(=O)c2cccs2)Sc2ccccc21`, the Potency was inconclusive: 19.9 µM [inhibitor, partial curve].
`CC(=O)Oc1ccccc1C1OC(=O)c2ccccc2N1C(C)=O` (centres undefined) was tested, and the Potency was inconclusive: 25.1 µM [inhibitor, single point].
For `CC(=O)NC(c1ccccc1)c1c(O)ccc2ccccc12` (centres undefined), the Potency was inconclusive: 19.9 µM [inhibitor, partial curve].
For `CSc1nc(SCC(=O)O)c2c3c(sc2n1)COC(C)(C)C3`, the Potency was inconclusive: 25.1 µM [activator, partial curve].
